Measured values: the supplement of paper PMC8728848
The list shows a part of the results.

Columns and labels:
Test in all cases: glycan array binding signal (z-score within array); higher = stronger binding
Conditions in all cases: glycan notation: IUPAC condensed, linker removed
GlcNAc(b1-3)Man = biological target: GlcNAc(b1-3)Man
Method in brief: (§1)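 Arrays were curated from the Consortium for Functional Glycomics database, 3228 in total, and kept only where the protein sequence was available. Binding is expressed as a within-array Z-score. This score was averaged across arrays of the same protein sequence at different concentrations or buffers and across linkers, and negative values can be read as non-binding.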

[1] = biological target: GlcNAc(b1-3)[GlcNAc(b1-4)][GlcNAc(b1-6)]GlcNAc
Method in brief: as §1

[2] = biological target: GlcNAc(b1-3)[GlcNAc(b1-6)]Gal(b1-4)GlcNAc
Method in brief: as §1

[3] = biological target: GlcNAc(b1-3)[GlcNAc(b1-6)]GalNAc
Method in brief: as §1

[4] = biological target: GlcNAc(b1-4)Gal(b1-4)GlcNAc
Method in brief: as §1

GlcNAc(b1-4)GlcNAc = biological target: GlcNAc(b1-4)GlcNAc
Method in brief: as §1

[5] = biological target: GlcNAc(b1-4)GlcNAc(b1-4)GlcNAc
Method in brief: as §1

[6] = biological target: GlcNAc(b1-4)GlcNAc(b1-4)GlcNAc(b1-4)GlcNAc(b1-4)GlcNAc
Method in brief: as §1

[7] = biological target: GlcNAc(b1-4)GlcNAc(b1-4)GlcNAc(b1-4)GlcNAc(b1-4)GlcNAc(b1-4)GlcNAc
Method in brief: as §1

[8] = biological target: GlcNAc(b1-4)[GlcNAc(b1-6)]GalNAc
Method in brief: as §1

[9] = biological target: GlcNAc(b1-6)Gal(b1-4)GlcNAc
Method in brief: as §1

GlcNAc(b1-6)GalNAc = biological target: GlcNAc(b1-6)GalNAc
Method in brief: as §1

[10] = biological target: GlcNAc6S(b1-3)Gal(b1-4)GlcNAc
Method in brief: as §1

Kdn(a2-3)Gal(b1-3)GalNAc = biological target: Kdn(a2-3)Gal(b1-3)GalNAc
Method in brief: as §1

Kdn(a2-3)Gal(b1-3)GlcNAc = biological target: Kdn(a2-3)Gal(b1-3)GlcNAc
Method in brief: as §1

Kdn(a2-3)Gal(b1-4)Glc = biological target: Kdn(a2-3)Gal(b1-4)Glc
Method in brief: as §1

Kdn(a2-3)Gal(b1-4)GlcNAc = biological target: Kdn(a2-3)Gal(b1-4)GlcNAc
Method in brief: as §1

[11] = biological target: Kdn(a2-3)Gal(b1-4)[Fuc(a1-3)]GlcNAc
Method in brief: as §1

Kdn(a2-6)Gal(b1-4)GlcNAc = biological target: Kdn(a2-6)Gal(b1-4)GlcNAc
Method in brief: as §1

[12] = biological target: Man(a1-2)Man(a1-2)Man(a1-3)Man
Method in brief: as §1

[13] = biological target: Man(a1-2)Man(a1-2)Man(a1-6)[Man(a1-3)]Man
Method in brief: as §1

Man(a1-2)Man(a1-3)Man = biological target: Man(a1-2)Man(a1-3)Man
Method in brief: as §1

[14] = biological target: Man(a1-2)Man(a1-3)[Man(a1-2)Man(a1-6)]Man
Method in brief: as §1

[15] = biological target: Man(a1-2)Man(a1-3)[Man(a1-2)Man(a1-6)]Man(a1-6)[Man(a1-2)Man(a1-2)Man(a1-3)]Man
Method in brief: as §1

[16] = biological target: Man(a1-2)Man(a1-3)[Man(a1-2)Man(a1-6)]Man(a1-6)[Man(a1-2)Man(a1-2)Man(a1-3)]Man(b1-4)GlcNAc(b1-4)GlcNAc
Method in brief: as §1

[17] = biological target: Man(a1-2)Man(a1-3)[Man(a1-6)]Man(a1-6)[Man(a1-2)Man(a1-3)]Man(b1-4)GlcNAc(b1-4)GlcNAc
Method in brief: as §1

[18] = biological target: Man(a1-2)Man(a1-6)[Man(a1-3)]Man(a1-6)[Man(a1-2)Man(a1-2)Man(a1-3)]Man
Method in brief: as §1

[19] = biological target: Man(a1-2)Man(a1-6)[Man(a1-3)]Man(a1-6)[Man(a1-2)Man(a1-2)Man(a1-3)]Man(b1-4)GlcNAc(b1-4)GlcNAc
Method in brief: as §1

Man(a1-3)[Man(a1-6)]Man = biological target: Man(a1-3)[Man(a1-6)]Man
Method in brief: as §1

[20] = biological target: Man(a1-3)[Man(a1-6)]Man(a1-6)[Man(a1-2)Man(a1-3)]Man(b1-4)GlcNAc(b1-4)GlcNAc
Method in brief: as §1

[21] = biological target: Man(a1-3)[Man(a1-6)]Man(a1-6)[Man(a1-3)]Man
Method in brief: as §1

[22] = biological target: Man(a1-3)[Man(a1-6)]Man(a1-6)[Man(a1-3)]Man(b1-4)GlcNAc(b1-4)GlcNAc
Method in brief: as §1

[23] = biological target: Man(a1-3)[Man(a1-6)]Man(b1-4)GlcNAc(b1-4)GlcNAc
Method in brief: as §1

[24] = biological target: Man(a1-3)[Man(a1-6)]Man(b1-4)GlcNAc(b1-4)[Fuc(a1-6)]GlcNAc
Method in brief: as §1

Man(a1-6)Man = biological target: Man(a1-6)Man
Method in brief: as §1

Man(b1-4)GlcNAc = biological target: Man(b1-4)GlcNAc
Method in brief: as §1

MurNAc(b1-4)GlcNAc = biological target: MurNAc(b1-4)GlcNAc
Method in brief: as §1

Neu5Ac(a2-3)Gal = biological target: Neu5Ac(a2-3)Gal
Method in brief: as §1

B1: OGAA (protein)
chain: MVQKESQATLEERESELSSNPAASAGASLEPPAAPAPGEDNPAGAGGAAVAGAAGGARRFLCGVVEGFYGRPWVMEQRKELFRRLQKWELNTYLYAPKDDYKHRMFWREMYSVEEAEQLMTLISAAREYEIEFIYAISPGLDITFSNPKEVSTLKRKLDQVSQFGCRSFALLFADIDHNMCAADKEVFSSFAHAQVSITNEIYQYLGEPETFLFCPTEYCGTFCYPNVSQSPYLRTVGEKLLPGIEVLWTGPKVVSKEIPVESIEEVSKIIKRAPVIWDNIHANDYDQKRLFLGPYKGRSTELIPRLKGVLTNPNCEFEANYVAIHTLATWYKSNMNGVRKDVVMTDSEDSTVSIQIKLENEGSDEDIETDVLYSPQMALKLALTEWLQEFGVPHQY
- glycan array binding signal (z-score) (GlcNAc(b1-3)Man): -0.115
- glycan array binding signal (z-score) [1]: -0.101
- glycan array binding signal (z-score) [2]: -0.11
- glycan array binding signal (z-score) [3]: -0.026
- glycan array binding signal (z-score) [4]: -0.129
- glycan array binding signal (z-score) (GlcNAc(b1-4)GlcNAc): -0.105
- glycan array binding signal (z-score) [5]: -0.101
- glycan array binding signal (z-score) [6]: -0.126
- glycan array binding signal (z-score) [7]: -0.102
- glycan array binding signal (z-score) [8]: -0.031
- glycan array binding signal (z-score) [9]: -0.095
- glycan array binding signal (z-score) (GlcNAc(b1-6)GalNAc): -0.125
- glycan array binding signal (z-score) [10]: -0.111
- glycan array binding signal (z-score) (Kdn(a2-3)Gal(b1-3)GalNAc): -0.093
- glycan array binding signal (z-score) (Kdn(a2-3)Gal(b1-3)GlcNAc): -0.06
- glycan array binding signal (z-score) (Kdn(a2-3)Gal(b1-4)Glc): -0.095
- glycan array binding signal (z-score) (Kdn(a2-3)Gal(b1-4)GlcNAc): -0.092
- glycan array binding signal (z-score) [11]: -0.025
- glycan array binding signal (z-score) (Kdn(a2-6)Gal(b1-4)GlcNAc): -0.043
- glycan array binding signal (z-score) [12]: 0.042
- glycan array binding signal (z-score) [13]: -0.131
- glycan array binding signal (z-score) (Man(a1-2)Man(a1-3)Man): -0.028
- glycan array binding signal (z-score) [14]: -0.114
- glycan array binding signal (z-score) [15]: -0.028
- glycan array binding signal (z-score) [16]: -0.113
- glycan array binding signal (z-score) [17]: -0.128
- glycan array binding signal (z-score) [18]: -0.114
- glycan array binding signal (z-score) [19]: 0
- glycan array binding signal (z-score) (Man(a1-3)[Man(a1-6)]Man): -0.104
- glycan array binding signal (z-score) [20]: -0.14
- glycan array binding signal (z-score) [21]: -0.025
- glycan array binding signal (z-score) [22]: -0.102
- glycan array binding signal (z-score) [23]: -0.09
- glycan array binding signal (z-score) [24]: 0.002
- glycan array binding signal (z-score) (Man(a1-6)Man): -0.126
- glycan array binding signal (z-score) (Man(b1-4)GlcNAc): -0.088
- glycan array binding signal (z-score) (MurNAc(b1-4)GlcNAc): -0.084
- glycan array binding signal (z-score) (Neu5Ac(a2-3)Gal): -0.09
